Source: the supplement of paper PMC3334620
Whole data set: some 33,000 sequences, median “E-score (-0.5 to 0.5)” near -0.035, cut for the highest 2% near 0.34. Some of the results follow.

The sequences below were run against T1, Mot3 (UniProt P54785) (assay: PBM E-score (8-mer binding enrichment) (E-score (-0.5 to 0.5)); higher = stronger / more preferred TF binding; most listed sequences are background and not binding sites). Conditions: protein concentration: 200 nM; construct: GST-full length.
T1 sequence: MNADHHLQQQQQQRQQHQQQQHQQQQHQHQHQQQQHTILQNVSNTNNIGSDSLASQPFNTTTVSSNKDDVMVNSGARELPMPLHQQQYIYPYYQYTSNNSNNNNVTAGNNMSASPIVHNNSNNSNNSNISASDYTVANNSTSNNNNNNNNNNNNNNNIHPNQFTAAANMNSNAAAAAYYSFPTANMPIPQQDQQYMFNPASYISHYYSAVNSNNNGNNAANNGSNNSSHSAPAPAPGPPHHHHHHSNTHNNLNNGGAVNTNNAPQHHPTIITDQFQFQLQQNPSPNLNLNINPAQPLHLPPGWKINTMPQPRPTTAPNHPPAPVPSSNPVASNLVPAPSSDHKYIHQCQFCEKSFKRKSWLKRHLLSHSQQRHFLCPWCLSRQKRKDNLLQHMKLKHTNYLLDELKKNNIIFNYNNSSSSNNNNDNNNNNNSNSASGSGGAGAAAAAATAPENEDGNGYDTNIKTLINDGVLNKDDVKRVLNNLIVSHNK
Experimental: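 Universal 'all 10-mer' protein binding microarrays (Agilent AMADID 015681) probed with GST-tagged S. cerevisiae TFs (full-length or DBD) made by in vitro transcription/translation (PURExpress), about 100-200 nM. Bound TF was detected with fluorescent anti-GST. Each ungapped 8-mer (which stands for itself and its reverse complement) is scored by the PBM enrichment score (E-score), a modified Wilcoxon-Mann-Whitney statistic from -0.5 to +0.5, computed with the Universal PBM Analysis Suite. Scale: above 0.35 generally sequence-specific binding.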

With GACCAGGC as the sequence, how does the “PBM E-score” value read?
Its value is 0.0599.

Which “PBM E-score” value does the source give for TAATTCCA here?
Its value is 0.0253.

For ATTTGGAA, which “PBM E-score” value is on record?
The value was 0.0422.

How did the “PBM E-score” value turn out when CTAGGATC was run?
The value was -0.0652.

GAGTCCTA was tested. Which “PBM E-score” value did it give?
The value was -0.116.

For ATAGGGTA, which “PBM E-score” value is on record?
Its value is -0.0483.

With GCAGAGCA as the sequence, how does the “PBM E-score” value read?
The value was -0.113.

Which “PBM E-score” value does the source give for AACTCCAC here?
The value was 0.0809.

With AAGGTCAA as the sequence, how does the “PBM E-score” value read?
Its value is 0.00464.

With CTTGCGAC as the sequence, how does the “PBM E-score” value read?
The value was -0.377.

With AGAGACAG as the sequence, how does the “PBM E-score” value read?
The value was -0.151.

AGATTAGC was tested. Which “PBM E-score” value did it give?
The value was -0.0474.

GTGCAGAA was tested. Which “PBM E-score” value did it give?
The value was 0.0245.

With CAATGGTC as the sequence, how does the “PBM E-score” value read?
Its value is -0.00491.

How did the “PBM E-score” value turn out when CAAATCCG was run?
Its value is -0.0986.

Which “PBM E-score” value does the source give for AAAGGTTC here?
Its value is 0.12.

TCAGTGCA was tested. Which “PBM E-score” value did it give?
The value was 0.0186.

Which “PBM E-score” value does the source give for CAGCAGGA here?
Its value is 0.11.

For AACCGGGA, which “PBM E-score” value is on record?
The value was -0.223.

For GAACACAC, which “PBM E-score” value is on record?
Its value is 0.173.

Which “PBM E-score” value does the source give for CTTGGTCC here?
Its value is -0.0537.

With CACAACAG as the sequence, how does the “PBM E-score” value read?
Its value is 0.181.

With AGAATACG as the sequence, how does the “PBM E-score” value read?
Its value is 0.227.

AAGGGAAG was tested. Which “PBM E-score” value did it give?
Its value is 0.0435.

Which “PBM E-score” value does the source give for AATGCTCC here?
Its value is -0.24.

With AGCCTGGG as the sequence, how does the “PBM E-score” value read?
Its value is -0.0377.

CAACCTAG was tested. Which “PBM E-score” value did it give?
Its value is 0.0147.

For CAGTCCCA, which “PBM E-score” value is on record?
The value was -0.00632.

Which “PBM E-score” value does the source give for ATAATGGC here?
Its value is -0.0435.

For GTCGAAAA, which “PBM E-score” value is on record?
Its value is 0.0959.

For AGAAGTTC, which “PBM E-score” value is on record?
Its value is 0.0553.

With CTGCTTCC as the sequence, how does the “PBM E-score” value read?
Its value is -0.033.

How did the “PBM E-score” value turn out when CTATACGC was run?
Its value is 0.152.

How did the “PBM E-score” value turn out when TGGCGACA was run?
The value was -0.117.

How did the “PBM E-score” value turn out when AATTAACA was run?
Its value is 0.32.

For TAAAACTA, which “PBM E-score” value is on record?
The value was 0.156.

ATCCGGGG was tested. Which “PBM E-score” value did it give?
The value was -0.223.

AAGGTGTA was tested. Which “PBM E-score” value did it give?
Its value is 0.178.

Which “PBM E-score” value does the source give for CACTGCCA here?
The value was -0.158.

GGGGGACC was tested. Which “PBM E-score” value did it give?
Its value is -0.292.

Which “PBM E-score” value does the source give for CGATCTAA here?
The value was 0.0474.

With AACCCAGT as the sequence, how does the “PBM E-score” value read?
The value was 0.109.

For GCGACTAC, which “PBM E-score” value is on record?
The value was 0.136.

How did the “PBM E-score” value turn out when ACAACTCC was run?
Its value is -0.157.

ACTGGCTG was tested. Which “PBM E-score” value did it give?
Its value is -0.261.

How did the “PBM E-score” value turn out when AAAGCATT was run?
The value was 0.0984.

For CCATGCAA, which “PBM E-score” value is on record?
The value was 0.0816.

How did the “PBM E-score” value turn out when ATATGGAC was run?
Its value is -0.0623.

For CCCATTCC, which “PBM E-score” value is on record?
Its value is -0.202.

Which “PBM E-score” value does the source give for CTTCAACC here?
Its value is 0.0605.

Which “PBM E-score” value does the source give for GCAGGCCC here?
Its value is 0.0997.

Which “PBM E-score” value does the source give for AAGATTAG here?
The value was 0.0808.

With AAACTCCC as the sequence, how does the “PBM E-score” value read?
The value was -0.15.

For AATCGCTA, which “PBM E-score” value is on record?
Its value is -0.0747.

CCTAAAGC was tested. Which “PBM E-score” value did it give?
The value was -0.0702.

Which “PBM E-score” value does the source give for TGAACTCA here?
The value was 0.00547.

GCCCTGAA was tested. Which “PBM E-score” value did it give?
The value was -0.108.

With ATGAAATA as the sequence, how does the “PBM E-score” value read?
The value was 0.149.

GGGTAGAA was tested. Which “PBM E-score” value did it give?
The value was 0.101.

ATCCATAC was tested. Which “PBM E-score” value did it give?
Its value is -0.0429.

For GGGAGTAC, which “PBM E-score” value is on record?
The value was 0.0218.

With ACCCAACG as the sequence, how does the “PBM E-score” value read?
The value was 0.0185.

How did the “PBM E-score” value turn out when CTAGTAGA was run?
The value was 0.0485.

CACGGCCC was tested. Which “PBM E-score” value did it give?
The value was 0.0124.

Which “PBM E-score” value does the source give for CTTGGGAA here?
Its value is -0.0817.

ACACCGTC was tested. Which “PBM E-score” value did it give?
Its value is -0.242.

For AGCGCCCG, which “PBM E-score” value is on record?
The value was -0.169.

Which “PBM E-score” value does the source give for GCGTTGAA here?
Its value is 0.217.

CAGTTGAC was tested. Which “PBM E-score” value did it give?
The value was -0.0241.

How did the “PBM E-score” value turn out when CCGCGCCA was run?
The value was -0.253.

Which “PBM E-score” value does the source give for AATAGAAC here?
Its value is -0.0399.

Which “PBM E-score” value does the source give for GCCTTAGC here?
Its value is 0.229.

Which “PBM E-score” value does the source give for GTGGTCTA here?
The value was -0.279.

Which “PBM E-score” value does the source give for GATGTCCC here?
The value was -0.255.

With ATTTTCGA as the sequence, how does the “PBM E-score” value read?
Its value is 0.0256.

With ACGATGCT as the sequence, how does the “PBM E-score” value read?
Its value is -0.214.

CCTAACCC was tested. Which “PBM E-score” value did it give?
The value was -0.105.

With AACTAGAA as the sequence, how does the “PBM E-score” value read?
Its value is 0.131.

With GTCAGGAC as the sequence, how does the “PBM E-score” value read?
Its value is -0.0906.

AGATCGAG was tested. Which “PBM E-score” value did it give?
The value was -0.216.

How did the “PBM E-score” value turn out when GCCCCCTA was run?
Its value is -0.355.

For CAGTTAAC, which “PBM E-score” value is on record?
Its value is 0.0448.

How did the “PBM E-score” value turn out when GCTGCCCC was run?
The value was -0.304.

ACCCATAA was tested. Which “PBM E-score” value did it give?
The value was -0.196.

AGGCATGG was tested. Which “PBM E-score” value did it give?
The value was 0.229.

AATGCTTA was tested. Which “PBM E-score” value did it give?
The value was -0.0853.
